# Results reported in the supplement of paper PMC4604168 (melanoma cell lines).
# The list shows a part of the results. Many values rest on one well or one pass, so single values are uncertain.
# Legend:
# Experiment in all cases: cell count relative to DMSO control; melanoma cells; higher = more viable cells
# Settings in all cases: library dose: low library concentration; 72 h
# MeWo = system: MeWo
# RPMI7951 = system: RPMI7951
# RVH-421 = system: RVH-421
# SkMel28 = system: SkMel28
# SkMel30 = system: SkMel30
# SkMel5 = system: SkMel5
# UACC257 = system: UACC257
# UACC62 = system: UACC62
# MZ2-MEL = system: MZ2-MEL
# SkMel2 = system: SkMel2
# 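Also: cell number obtained by counting DAPI-stained nuclei in high-throughput microscope images with image analysis software, screen run in 1,536-well plates.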
SMILES,cell count (MeWo) [%],cell count (RPMI7951) [%],cell count (RVH-421) [%],cell count (SkMel28) [%],cell count (SkMel30) [%],cell count (SkMel5) [%],cell count (UACC257) [%],cell count (UACC62) [%],cell count (MZ2-MEL) [%],cell count (SkMel2) [%]
"Nc1cccc2c1CN(C1CCC(=O)NC1=O)C2=O (stereo unspecified) [lenalidomide] + COc1cc(N2CCC(N3CCN(C)CC3)CC2)ccc1Nc1ncc(Cl)c(Nc2ccccc2S(=O)(=O)C(C)C)n1 [NVP-TAE684] (first compound 1 µM, partner dose 0.08 µM)",88.9,86.7,103,100,107,91.6,85.7,95,,
"Cn1c(Nc2ccc(C(F)(F)F)cc2)nc2cc(Oc3ccnc(-c4ncc(C(F)(F)F)[nH]4)c3)ccc21 + CCN(CC)CCCCNc1ncc2cc(-c3cc(OC)cc(OC)c3)c(NC(=O)NC(C)(C)C)nc2n1 [PD173074] (first compound 0.08 µM, partner dose 0.1 µM)",66.2,69.3,71.9,52.6,60.2,64.3,50.8,50.5,78.3,
"C#Cc1cccc(Nc2ncnc3cc(OCCOC)c(OCCOC)cc23)c1 [erlotinib] + COc1ccc(Cl)c(Nc2nc3ccccc3nc2NS(=O)(=O)c2cccc(NC(=O)C(C)(C)N)c2)c1 [XL147] (first compound 0.8 µM, partner dose 0.8 µM)",79.5,82.2,86.8,70.5,102,,,82.4,,
"O=C(CCCCCCC(=O)Nc1ccccc1)NO [vorinostat] + CCN(CC)CCCCNc1ncc2cc(-c3cc(OC)cc(OC)c3)c(NC(=O)NC(C)(C)C)nc2n1 [PD173074] (first compound 0.08 µM, partner dose 0.1 µM)",99.4,96.7,98.6,86.5,124,80.9,107,91.5,97.1,
"O=C(CCCCCCC(=O)Nc1ccccc1)NO [vorinostat] + O=C(Nc1ccccc1)c1cc([N+](=O)[O-])ccc1Cl [GW9662] (first compound 0.08 µM, partner dose 2 µM)",101,110,130,73.9,105,91.7,93.7,79.2,95.8,
"C#Cc1cccc(Nc2ncnc3cc(OCCOC)c(OCCOC)cc23)c1 [erlotinib] + CCCCCCCCCCCC1=C(O)C(=O)C=C(O)C1=O [Embelin] (first compound 0.8 µM, partner dose 1.2 µM)",82.9,93.6,108,106,124,101,70.9,107,94.9,
"COCC[n+]1c2c(n(Cc3cnccn3)c1C)C(=O)c1ccccc1C2=O + CN(C)S(=O)(=O)c1ccc2c(c1)/C(=C/c1cc3c([nH]1)CCCC3)C(=O)N2 [SU6656] (first compound 0.0004 µM, partner dose 0.4 µM)",82,81.6,84.8,79.6,85.5,53.7,89.5,79.8,,
"O=C(CCCCCCC(=O)Nc1ccccc1)NO [vorinostat] + COc1ccc(COc2ccc(Cc3cnc(N)nc3N)cc2OC)cc1 [GW2580] (first compound 0.08 µM, partner dose 1 µM)",106,102,94.6,82.3,128,97,86.2,87,100,
"Cn1c(Nc2ccc(C(F)(F)F)cc2)nc2cc(Oc3ccnc(-c4ncc(C(F)(F)F)[nH]4)c3)ccc21 + CCc1ccc(CCOc2ccc(CC3SC(=O)NC3=O)cc2)nc1 [pioglitazone] (first compound 0.08 µM, partner dose 2 µM)",71.8,67.2,76.8,64,63.3,71.5,51.3,48.4,94,
"C#Cc1cccc(Nc2ncnc3cc(OCCOC)c(OCCOC)cc23)c1 [erlotinib] + Nc1cccc2c1CN(C1CCC(=O)NC1=O)C2=O [lenalidomide] (first compound 0.8 µM, partner dose 1 µM)",93.4,89,88.4,88.7,77.8,,,87.7,99.4,
"OCc1c[nH]c2ccccc12 [Indole-3-carbinol] + Clc1ccc(Nc2nnc(Cc3ccncc3)c3ccccc23)cc1 [vatalanib] (first compound 0.8 µM, partner dose 2 µM)",79.5,89.6,82.1,81,90,,,91.2,,
"COCC[n+]1c2c(n(Cc3cnccn3)c1C)C(=O)c1ccccc1C2=O + O=C(O)C(=O)Nc1sc2c(c1C(=O)O)CCNC2 [TCS401] (first compound 0.0004 µM, partner dose 1.66667 µM)",80.2,81.1,111,90.6,103,76.9,96.2,95.8,53.1,
"COCC[n+]1c2c(n(Cc3cnccn3)c1C)C(=O)c1ccccc1C2=O + Oc1nc(-c2ccc(C(F)(F)F)cc2)nc2c1CSCC2 [XAV939] (first compound 0.0004 µM, partner dose 2 µM)",86.2,72.6,111,81.8,97.7,70.8,89.8,84,59.3,
"COCC[n+]1c2c(n(Cc3cnccn3)c1C)C(=O)c1ccccc1C2=O + COc1cc(N2CCC(N3CCN(C)CC3)CC2)ccc1Nc1ncc(Cl)c(Nc2ccccc2S(=O)(=O)C(C)C)n1 [NVP-TAE684] (first compound 0.0004 µM, partner dose 0.08 µM)",81.6,61.8,96.1,89.3,112,65.3,92.5,93.8,,
"COCC[n+]1c2c(n(Cc3cnccn3)c1C)C(=O)c1ccccc1C2=O + O=C1NC(=O)/C(=C/c2ccc(-c3ccc(F)cc3O)o2)S1 [AS252424] (first compound 0.0004 µM, partner dose 1 µM)",96.9,98,116,93.6,81,79.8,88,104,77.1,
"O=C(CCCCCCC(=O)Nc1ccccc1)NO [vorinostat] + Cc1ccc(NC(=O)c2cccc(N(C)C)c2)cc1NC(=O)c1ccc(O)cc1 [ZM336372] (first compound 0.08 µM, partner dose 2 µM)",92.6,77.9,87.4,95.7,101,105,88.1,75.8,,110
"COCC[n+]1c2c(n(Cc3cnccn3)c1C)C(=O)c1ccccc1C2=O + Oc1cc(-c2nc(-c3ccccc3)[nH]c2-c2ccncc2)ccc1Cl [L779450] (first compound 0.0004 µM, partner dose 0.2 µM)",90.1,77.1,84.5,80.3,121,74.2,89.3,78.9,31.4,
"Cn1c(Nc2ccc(C(F)(F)F)cc2)nc2cc(Oc3ccnc(-c4ncc(C(F)(F)F)[nH]4)c3)ccc21 + O=C(O)C(=O)Nc1sc2c(c1C(=O)O)CCNC2 [TCS401] (first compound 0.08 µM, partner dose 1.66667 µM)",74,60.8,75.2,75.3,82.8,80,45.1,49.3,84.7,
"Nc1cccc2c1CN(C1CCC(=O)NC1=O)C2=O (stereo unspecified) [lenalidomide] + c1cc(-c2cnn3cc(-c4ccc(OCCN5CCCCC5)cc4)cnc23)ccn1 [Dorsomorphin] (first compound 1 µM, partner dose 0.4 µM)",104,106,114,88.2,134,94.7,74,99.6,94.9,
"O=C(CCCCCCC(=O)Nc1ccccc1)NO [vorinostat] + c1cc(-c2cnn3cc(-c4ccc(OCCN5CCCCC5)cc4)cnc23)ccn1 [Dorsomorphin] (first compound 0.08 µM, partner dose 0.4 µM)",91.3,88.2,88.9,91,110,81.3,89.6,90.1,95.5,
"O=C(CCCCCCC(=O)Nc1ccccc1)NO [vorinostat] + OCCn1cc(-c2cnc3nnn(Cc4ccc5ncccc5c4)c3n2)cn1 [PF04217903] (first compound 0.08 µM, partner dose 1 µM)",93.3,104,88.3,78,101,88.7,67,86.5,,105
"C#Cc1cccc(Nc2ncnc3cc(OCCOC)c(OCCOC)cc23)c1 [erlotinib] + OCCn1cc(-c2cnc3nnn(Cc4ccc5ncccc5c4)c3n2)cn1 [PF04217903] (first compound 0.8 µM, partner dose 1 µM)",88.4,104,89.4,108,113,86.4,101,100,,98.4
"C#Cc1cccc(Nc2ncnc3cc(OCCOC)c(OCCOC)cc23)c1 [erlotinib] + COc1ccc2c(c1)CCC1C2CCC2(C)C(NCCCCCCN3C(=O)C=CC3=O)CCC12 [U73122] (first compound 0.8 µM, partner dose 0.4 µM)",95.5,92.7,88.3,80.5,93.7,106,83.5,78.5,93.4,
"O=C(CCCCCCC(=O)Nc1ccccc1)NO [vorinostat] + COC(=O)c1sccc1S(=O)(=O)Nc1ccc(Nc2ccccc2)cc1OC [GSK0660] (first compound 0.08 µM, partner dose 1 µM)",105,90.6,97.1,72.5,105,93.2,93.4,84.5,96.8,
"Nc1cccc2c1CN(C1CCC(=O)NC1=O)C2=O (stereo unspecified) [lenalidomide] + CCCCCCCCCCCC1=C(O)C(=O)C=C(O)C1=O [Embelin] (first compound 1 µM, partner dose 1.2 µM)",115,119,103,109,109,108,102,107,105,
"COCC[n+]1c2c(n(Cc3cnccn3)c1C)C(=O)c1ccccc1C2=O + CCN(CC)CCCCNc1ncc2cc(-c3cc(OC)cc(OC)c3)c(NC(=O)NC(C)(C)C)nc2n1 [PD173074] (first compound 0.0004 µM, partner dose 0.1 µM)",85.3,74.8,92.4,111,114,80.1,108,92.1,64,
"OCc1c[nH]c2ccccc12 [Indole-3-carbinol] + NCC(=O)Nc1ccc(-n2nc(C(F)(F)F)cc2-c2ccc3c(ccc4ccccc43)c2)cc1 [OSU03012] (first compound 0.8 µM, partner dose 1 µM)",58.3,94.1,89.9,75.3,50.9,82.6,68,79.1,,
